# Experimental data reported in the supplement of paper PMC11417369.
# The list shows a part of the results.
# Test system: PfAP2-HC AP2 domain (GST-tagged)
# Experiment: gcPBM binding intensity (ln(normalized median fluorescence intensity)); higher = stronger DNA binding
# In short: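 After 1 h on an Agilent 4 × 180k array of primer-extended double-stranded 36-bp intergenic genomic probes and negative controls, bound GST-tagged P. falciparum DNA-binding domains were detected with Alexa488 anti-GST antibody and scanned at 488 nm. The domains had been expressed in E. coli, and binding took place in 1× PBS with 1% milk, 0.2 mg/ml BSA, 0.5% salmon testes DNA and 0.03% Triton X-100. Binding intensity is the highest Masliner-normalised natural-log median intensity across replicate spots of either probe orientation.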
row,Sequence,gcPBM binding intensity (ln)
1,ATATTTTCCCTTGTTTTACACACGTGCTGATATGAG [CACACA_site8672],10.1
2,AATTTGAAATATGTGGTGCAGTTATATAATATGTTT [GTGCAC_site9885],9.92
3,TAATAAATAAATGACACACACACACGCAAAAAAAAA [CACACA_site7275],10.6
4,AACAAATACGAACACACACACACACTAAAAAAAAAA [CACACA_site6386],10.8
5,AGGATATAATACCATACACACATTTATAAAATAACA [CACACA_site1930],9.91
6,ATATATATTATATATATATATATATATATATATATA [CACACA_negctrl_site493],9.33
7,CACATTAATTTTTGGGTGCACTTGGGAAATTTTGGT,9.48
8,ATAATATGAAAACACACACACACACCCAAAAAAAAA [CACACA_site2011],10.6
9,TGTAATCAAAAAAATAGTACATAAATTGTGTATACT [XGTACX_site5908],9.7
10,ATTTTAGAATAAATTTTTTACATTAAAAAACTATTT [CACACA_negctrl_site1414],9.5
11,ACTCTCTTATATTAAACACACATATTTATAGGTATA [CACACA_site7302],9.78
12,GTATCAAAAGAATACACACACACATACATATATATA [CACACA_site3796],11.3
13,CATACAATAAATATGGTGCATTTTATGTAACCGTTT [GTGCAC_site9420],9.67
14,AAGGATATAACATACACACACACACGGATATAAATA [CACACA_site7867],11
15,TGAACATATTAAAATTGTACATATGCACAATATGTA [XGTACX_site6801],9.53
16,TATTTTATCATTTGCACACGCACACCGACATAAAAA [CACACA_site4348],9.97
17,CATCTAAATTGTAGTTGTACACCTTAATCTTATTAC [XGTACX_site7547],9.89
18,ATAAAAATATGATCAACACACGATTAAATATTCATA [CACACA_site1495],9.83
19,TGAAAAATAAATAAATGTACATATATATATATATAC [XGTACX_site7310],9.72
20,AGAAATACAAAATAAATATAAGAAACAAAATATTTA [CACACA_negctrl_site780],9.83
21,AAAAGGTTATCAATATGTACATATTTTTTTATTTTT [XGTACX_site3277],9.78
22,TTTTAATTAAAACACACACACACATATATATATATA [CACACA_site2291],10.6

row,Sequence,gcPBM binding intensity (ln)
1,TATTTCATCATATTGTGTACTTAATTTATATAATTA [XGTACX_site5753],9.72
2,TGATAATTTTTTACATGTACAAGTTTGTTTTTGCAT [XGTACX_site125],9.78
3,TTATCGGTATAATATAGTACATATAGATATATAATA [XGTACX_site1440],9.63
4,GATAAAATGGATGGATGTACATTATTTCCATATAAT [XGTACX_site7781],9.73
5,ATATTACTTCCTAAGTGTACAAGTAAGGAGAAAAAA [XGTACX_site3921],9.62
6,AGATGTTTTTATATATGTACTTAAATACACAAATAT [XGTACX_site8250],9.6
7,AAAAAAAAAAAAAACACACACACAAAATAAACAAAC [CACACA_site2720],10.8
8,AAAAAAAAAAAAATGTAATTTTTTAATTATTTATAT [GTGCAC_negctrl_site436],9.39
9,CATATATTTTTGTATAGTACTTTTTTTATTCGTTTT [XGTACX_site1860],9.66
10,ATAATGGAGAAATAAGCATGCATTATATTATAAAAA [TGCATGCA_site325],9.73
11,TAAAAGTTAATATAAACACACAAAAATTAATAAATA [CACACA_site6316],9.83
12,AATTTCTATTTTGTGAGTACATACTCCTATTATATA [XGTACX_site3210],9.76
13,TGAATATTTCTATATACACACATATAAATATAAATA [CACACA_site7593],9.61
14,TGAATAAATATATATACACACATATATGTATATATT [CACACA_site1642],9.77
15,TATATATATAATATATGTACATATTAATTATGTATA [XGTACX_site5366],9.56
16,GAGTTTACACTCCCTTGTACATATTCATTTTTATTC [XGTACX_site5208],10
17,GAATGCCTTGAAAATAGTACAATTAAGAAAAAATAC [XGTACX_site8002],9.64
18,TAAATAAATTTATACACACACACACCGATATATATA [CACACA_site4622],10.5
19,AATAAAAGATCATTTATTCTTTTTTTTCTTTTTAAA [CACACA_negctrl_site1256],9.3
20,AAAATACATAAACGTTCACACATTTAAGATAACGAG [CACACA_site5345],9.84
21,GAAAATTTTTGGTGTACACAAAAAAATCCAAAAAAA [CACACA_site5042],9.7
22,TATGATTGTTTACGTTGTACAGCTGAATTGTTCTTA [XGTACX_site8114],9.69

row,Sequence,gcPBM binding intensity (ln)
1,TTTTATTTTATAAAAATAAAAAAAAAATTATTACAA [TGCATGCA_negctrl_site508],9.26
2,TGAAAATAGTTAATTTGTACACAAAAATTAAGAAAA [XGTACX_site5794],9.79
3,AATTAAATAAATGTATGTACATAATAAATATGTATT [XGTACX_site4379],9.75
4,TTTTCGATGTTGGTAGGATGTATGGTACACGTAGTA [TGCATGCA_negctrl_site61],9.64
5,AAAGAAATATATACAAAAATATGAACAATTTATTAT [XGTACX_negctrl_site78],9.75
6,TATGAAAATATATATTGTACAGAATCTATAAAAAAT [XGTACX_site8030],9.61
7,GAATTTATGAACTGTGCATGTAAAAAAAACAACAAA [TGCATGCA_site449],9.77
8,TATAATAATATATATTGTACACACAAAATGGGAAAA [XGTACX_site3911],9.91
9,TATATGAAGCTATAGACACACATATAAAAATATAAT [CACACA_site4850],9.81
10,CATAAACTTTTTAACACACACTTATATATATATATA [CACACA_site4747],10
11,TAATTTTTATGAAGAAGTACAAAATCTACTATCATA [XGTACX_site4985],9.15
12,CTAAATAAAGTTAACACACACATAATATATATATGT [CACACA_site486],10
13,AAAAATTCTTTTTCATCTATATGCAGAAAGAAAAAG [CACACA_negctrl_site1201],9.23
14,TACATCTGTAATGTGTGTACATATATGTATATATTT [XGTACX_site1805],9.87
15,ATATATATAATATGATGTACATATTTATTTATATAT [XGTACX_site7333],9.7
16,AATGAAATAAAATAAAGTACATATATGTAAAAGTAG [XGTACX_site5650],10.4
17,TTTTTTTTTTTTTACACACACAAAATATTATCTGTA [CACACA_site5378],9.85
18,AATTGAAAAGAATGAAGTACACATTTGATGATACAT [XGTACX_site5182],9.68
19,ATATAAAAAAAAGATGAAAAAAAAAATGAAAGAAAG [CACACA_negctrl_site1266],9.84
20,ATTTATATTTATGATACACACACGTATATTCACATA [CACACA_site460],9.98
21,ATTTGTTTATAGGCCATAAAATATTTAATTCATTTG [CACACA_negctrl_site1824],9.43
22,AGTATTATATTTGTATGTACGTAGTAATATATAAAA [XGTACX_site528],9.67

row,Sequence,gcPBM binding intensity (ln)
1,TTTTTCATAAATATATGTACATATATTTTATATAAC [XGTACX_site3402],9.66
2,AATGTAATATAAATATGTACATAATATATATAATTA [XGTACX_site4762],9.8
3,TTTTTATTTTTTTAGTATACGTACTAGGTTTGTTCT [XGTACX_site645],9.75
4,ATATATTTATATATATGTACTTAAAACATTTCGATG [XGTACX_site328],9.42
5,AACAAGAAAAAAAAAAAAAAAAAAAAAAAATATTTT [XGTACX_negctrl_site428],9.39
6,ATATATATATTTTTATGAGGCATAAGTAATATTTTT [TGCATGCA_negctrl_site317],9.56
7,ATATAAAATATTAGTAGTACCATTAACAGTATTGTT [XGTACX_site5912],9.69
8,ATTAAGATGTATATATGTACATATTACATACATATA [XGTACX_site8657],9.72
9,AAAAAAAATTAATTAGTGCAAAATATATACAAAATA [GTGCAC_site9762],9.8
10,TAAGAAAATATTTATGTATGCATGTCCTAATATTTC [TGCATGCA_site295],9.57
11,TATGAAAAAAAAAATACACACACGAGTTGTTATACA [CACACA_site3188],9.81
12,AATGAAATATGGATGGGTACACATTTGATTTTATTA [XGTACX_site6155],9.61
13,ATATATATAAACATATGTACACATATATATAATACA [XGTACX_site1848],9.83
14,TGTATGTATAGAAACACACATACATATATATAATAT [CACACA_site1405],9.78
15,TTTAGATAATTCATTACACACATGTATATTTATATA [CACACA_site7602],9.84
16,TTTTTTTTTTTTTTATGTACGAAAGAAAAGCACATA [XGTACX_site8261],9.08
17,TAACGAATTTAAATTTGTACATATATAAATATATAA [XGTACX_site2168],9.45
18,ATCATCTATGTTATTACACACGTTATGTTATTATAA [CACACA_site5502],9.92
19,ATAATACACGATTATTTTCCCTTTATGTAAATATAT [CACACA_negctrl_site1107],9.63
20,TATATATATAATATTGCACACAAAATTAAAAGTAAA [CACACA_site7889],9.88
21,AAAAAAAAAAAATGTGTGCACATTATTTCAACTTAA,9.83
22,TATTTTATCTATTTGTGTACTTATATTTATGCAAAA [XGTACX_site1499],9.62
